Reference: the antibiotic and cytotoxicity screens of Wong et al. (2023)
Some of the results follow.

Key:
HSkMC = human skeletal muscle cells; assay: cytotoxicity call (relative viability < 0.9); details: 10 µM
HepG2 = assay: cytotoxicity call (relative viability < 0.9); details: 10 µM
S. aureus RN4220 = assay: growth inhibition call (relative growth <= 0.2); details: 50 µM

Row | Compound | cytotoxicity call (HSkMC) | cytotoxicity call (HepG2) | growth inhibition call (S. aureus RN4220)
1 | C[C@@H]1CN([C@H](C)CO)C(=O)c2cccc(NS(=O)(=O)c3cccs3)c2O[C@@H]1CN(C)Cc1ccc(Cl)c(Cl)c1 | inactive | inactive | inactive
2 | O=C(C[C@H]1CC[C@@H]2[C@H](COC[C@@H](O)CN2C(=O)Nc2ccc(Cl)c(Cl)c2)O1)NCc1ccncc1 | inactive | inactive | active
3 | C[C@@H]1CN([C@@H](C)CO)C(=O)Cc2cc(NS(=O)(=O)c3ccc(F)cc3)ccc2O[C@@H]1CN(C)Cc1ccc(Oc2ccccc2)cc1 | active | active | inactive
4 | CCCN(C)C[C@H]1OCCCC[C@H](C)Oc2ccc(NS(=O)(=O)c3cn(C)cn3)cc2C(=O)N([C@H](C)CO)C[C@H]1C | inactive | inactive | inactive
5 | C[C@@H]1CCCCO[C@H](CN(C)C(=O)C2CCCCC2)[C@H](C)CN([C@@H](C)CO)C(=O)c2cc(NC(=O)Nc3ccc(C(F)(F)F)cc3)ccc2O1 | inactive | inactive | inactive
6 | COc1ccc(CN(C)C[C@@H]2OCCCC[C@@H](C)Oc3ccc(NC(=O)c4ccccc4)cc3C(=O)N([C@H](C)CO)C[C@H]2C)cc1 | inactive | inactive | inactive
7 | COc1cccc(-c2ccc3c(c2)O[C@H](CN(C)Cc2cncnc2)[C@@H](C)CN([C@@H](C)CO)S3(=O)=O)c1 | inactive | inactive | inactive
8 | C[C@H](CO)N1C[C@H](C)[C@@H](CN(C)Cc2ccc(Oc3ccccc3)cc2)Oc2ccc(NC(=O)Nc3ccccc3)cc2CC1=O | inactive | inactive | inactive
9 | C[C@H](CO)N1C[C@H](C)[C@H](CN(C)C(=O)Cc2ccncc2)Oc2cc(C#CC3(O)CCCC3)ccc2S1(=O)=O | inactive | inactive | inactive
10 | CCO[C@@H]1OC(C(=O)N2CCN(Cc3ccccc3)CC2)=C[C@H](c2ccc(Br)cc2)[C@H]1CCCOC(=O)NCCCCCC(=O)NO | inactive | inactive | inactive
11 | C[C@H]1CN([C@@H](C)CO)C(=O)Cc2cc(NS(=O)(=O)c3ccc(Cl)cc3)ccc2O[C@H]1CN(C)Cc1ccc(C(=O)Nc2ccccc2N)cc1 | inactive | inactive | inactive
12 | C[C@H]1CN([C@@H](C)CO)C(=O)CCCn2nncc2CO[C@@H]1CN(C)Cc1cccc2c1OCCCO2 | inactive | inactive | inactive
13 | C[C@@H]1CCCCO[C@@H](CN(C)C(=O)c2ccccc2)[C@@H](C)CN([C@@H](C)CO)C(=O)c2cc(NS(=O)(=O)c3ccccc3)ccc2O1 | inactive | inactive | inactive
14 | COc1cccc(S(=O)(=O)Nc2ccc3c(c2)OC[C@@H](C)N(C(=O)Cc2cccnc2)C[C@@H](C)[C@@H](OC)CN(C)C3=O)c1 | inactive | inactive | inactive
15 | C[C@H]1CN([C@@H](C)CO)C(=O)c2cccc(NC(=O)Nc3ccc(F)cc3)c2O[C@@H]1CN(C)Cc1ccc(Oc2ccccc2)cc1 | inactive | inactive | inactive
16 | C[C@@H]1CN([C@@H](C)CO)C(=O)Cc2cc(NC(=O)Nc3ccc(C(F)(F)F)cc3)ccc2O[C@H]1CN(C)S(=O)(=O)c1ccc(Cl)cc1 | inactive | inactive | inactive
17 | Cn1cnc(CCNC(=O)C[C@@H]2CC[C@H]3[C@@H](COC[C@@H](O)CN3C(=O)Nc3ccc(C(F)(F)F)cc3)O2)c1 | inactive | inactive | active
18 | O=C1O[C@@H](c2ccccc2)[C@@H](c2ccccc2)N2[C@@H](c3ccc(O)cc3)[C@]3(C(=O)Nc4ccc(C#CC5(O)CCCCCC5)cc43)[C@@H](C(=O)N3CCCCCCC3)[C@H]12 | inactive | inactive | inactive
19 | COc1cccc(S(=O)(=O)N(C)C[C@@H]2Oc3ncc(-c4cccc(C(=O)N(C)C)c4)cc3C(=O)N([C@@H](C)CO)C[C@@H]2C)c1 | inactive | inactive | inactive
20 | C[C@@H]1CCCCO[C@H](CN(C)Cc2ccncc2)[C@H](C)CN([C@@H](C)CO)C(=O)c2cc(NC(=O)NC3CCCCC3)ccc2O1 | inactive | active | inactive
21 | CNC[C@@H]1Oc2ccc(NS(=O)(=O)c3cn(C)cn3)cc2CC(=O)N([C@@H](C)CO)C[C@H]1C | inactive | inactive | inactive
22 | COc1ccccc1S(=O)(=O)N[C@H]1CC[C@H](CCNC(=O)C2CCOCC2)O[C@@H]1CO | inactive | inactive | inactive
23 | COC(=O)[C@H](Cc1ccccc1)N1CC2=C[C@@H](C3CC3)n3c(=O)n(C)c(=O)n3[C@H]2[C@@H]1[C@@H](O)CCn1cc(-c2ccc(C(=O)NO)cc2)nn1 | inactive | inactive | inactive
24 | Cc1ccc(S(=O)(=O)Nc2ccc3c(c2)C(=O)N([C@H](C)CO)C[C@H](C)[C@H](CN(C)Cc2ccc(C(=O)O)cc2)OCCCC[C@@H](C)O3)cc1 | inactive | inactive | inactive
25 | Nc1ccncc1N | inactive | inactive | inactive
26 | CCC(=O)Nc1ccc2c(c1)OC[C@@H](C)N(C(=O)CN1CCOCC1)C[C@H](C)[C@@H](OC)CN(C)C2=O | inactive | inactive | inactive
27 | C[C@@H]1CCCCO[C@H](CN(C)Cc2ccc3c(c2)OCO3)[C@H](C)CN([C@@H](C)CO)C(=O)c2cc(NS(=O)(=O)c3ccccc3)ccc2O1 | inactive | active | inactive
28 | C[C@@H]1CN([C@H](C)CO)C(=O)c2cc(NS(=O)(=O)c3ccccc3)ccc2O[C@@H]1CN(C)Cc1ccc(Oc2ccccc2)cc1 | active | active | inactive

Row | Compound | cytotoxicity call (HSkMC) | cytotoxicity call (HepG2) | growth inhibition call (S. aureus RN4220)
29 | C[C@H]1CN([C@@H](C)CO)C(=O)c2cc(NS(=O)(=O)c3cn(C)cn3)ccc2O[C@@H]1CN(C)Cc1ccc(C(=O)O)cc1 | inactive | inactive | inactive
30 | C[C@@H]1CN([C@H](C)CO)C(=O)c2cccc(NC(=O)c3ccc(-c4nccs4)cc3)c2O[C@@H]1CN(C)Cc1ccc(C(F)(F)F)cc1 | inactive | active | inactive
31 | CC(=O)OC(C)C[N+](C)(C)C.[Cl-] (stereo not given) | inactive | active | inactive
32 | Cc1noc(C)c1NC(=O)Nc1ccc2c(c1)C(=O)N([C@H](C)CO)C[C@H](C)[C@H](CN(C)Cc1ccc(C(F)(F)F)cc1)OCCCC[C@@H](C)O2 | inactive | inactive | inactive
33 | C[C@@H]1CN([C@H](C)CO)C(=O)c2cc(NC(=O)C3CCCCC3)ccc2O[C@@H]1CN(C)C(=O)Nc1cccc2ccccc12 | inactive | inactive | inactive
34 | C[C@@H]1CN([C@H](C)CO)C(=O)c2cccc(NC(=O)NC3CCCCC3)c2O[C@@H]1CN(C)C(=O)Nc1ccc(C(F)(F)F)cc1 | inactive | inactive | inactive
35 | COc1ccc(CN(C)C[C@H]2OCCCC[C@H](C)Oc3ccc(NS(=O)(=O)c4ccc(C)cc4)cc3C(=O)N([C@H](C)CO)C[C@@H]2C)cc1 | inactive | inactive | inactive
36 | Cc1noc(C)c1NC(=O)N(C)C[C@@H]1OCCCC[C@@H](C)Oc2ccc(NC(=O)Nc3cccc4ccccc34)cc2C(=O)N([C@@H](C)CO)C[C@H]1C | inactive | inactive | inactive
37 | Nc1cccc(O)c1 | inactive | inactive | inactive
38 | COC(=O)c1c(CC[C@@H](CO)NC(=O)Nc2ccc(OC)cc2)oc(C(=O)Cc2ccccc2)c1C(=O)OC | inactive | inactive | inactive
39 | COc1ccc(S(=O)(=O)N(C)C[C@H]2Oc3ccc(NS(=O)(=O)c4ccccc4)cc3C(=O)N([C@H](C)CO)C[C@H]2C)cc1 | inactive | inactive | inactive
40 | O=c1c(-c2ccccc2F)coc2cc(O[C@@H]3O[C@H](CO)[C@@H](O)[C@H](O)[C@@H]3O)ccc12 | inactive | inactive | inactive
41 | Nc1nc(=O)c2ncn(COCCO)c2[nH]1 | inactive | inactive | inactive
42 | COc1cccc(S(=O)(=O)N(C)C[C@H]2Oc3cc(C#CCN(C)C)ccc3S(=O)(=O)N([C@H](C)CO)C[C@H]2C)c1 | inactive | inactive | inactive
43 | N[C@@H]1CC(=O)N(c2ccc(F)cc2)C1 | inactive | inactive | inactive
44 | CN(C)CCCNC(=O)C[C@@H]1CC[C@H]2[C@H](COc3ccc(NC(=O)NC4CCCC4)cc3C(=O)N2C)O1 | inactive | inactive | inactive
45 | C[C@@H]1CN([C@@H](C)CO)C(=O)c2cccc(NC(=O)c3cnccn3)c2O[C@H]1CN(C)C(=O)Nc1ccccc1 | inactive | inactive | inactive
46 | NC(=O)CCCCC1CCSS1 (stereo not given) | inactive | inactive | inactive
47 | NNC(=O)CCCCCCC(=O)O | inactive | inactive | inactive
48 | CN(CCCCCCCCCCN(C)C(=O)Oc1cccc([N+](C)(C)C)c1)C(=O)Oc1cccc([N+](C)(C)C)c1 | inactive | inactive | active
49 | CC(C)NC(=O)Nc1cccc2c1O[C@@H](CN(C)S(=O)(=O)c1cccs1)[C@H](C)CN([C@H](C)CO)C2=O | inactive | inactive | inactive
50 | C[C@@H]1CN([C@H](C)CO)C(=O)c2cc(NS(=O)(=O)c3ccccc3)ccc2O[C@@H](C)CCCCO[C@H]1CN(C)C(=O)Nc1ccc(C(F)(F)F)cc1 | inactive | inactive | inactive
51 | COc1ccc(NC(=O)N(C)C[C@H]2Oc3ncc(C#CC(C)C)cc3C(=O)N([C@H](C)CO)C[C@@H]2C)cc1 | inactive | inactive | inactive
52 | O=C(C[C@H]1CC[C@@H]2[C@H](COC[C@@H](O)CN2C(=O)c2ccccc2)O1)NCCCN1CCOCC1 | inactive | inactive | inactive
53 | C[C@H]1CN([C@@H](C)CO)C(=O)c2cc(NC(=O)Cc3cn(C)c4ccccc34)ccc2O[C@H]1CN(C)C(=O)Nc1ccc(C(F)(F)F)cc1 | inactive | inactive | inactive
54 | Cc1ccc2oc3c(c(=O)c2c1)[C@@]1(C(=O)N(Cc2ccccc2F)c2ccccc21)N(Cc1ccco1)C3=O | inactive | inactive | inactive
55 | COCC#Cc1ccc2c(c1)O[C@H](CN(C)C(=O)c1ccccc1F)[C@H](C)CN([C@@H](C)CO)S2(=O)=O | inactive | inactive | inactive
